# “And” between values parts separate entries of the source, which are not always exact repeats. Equal entries are not always repeated. This list was built around the results that the source calls inconclusive (neither active nor inactive); the mix of calls is not that of the screen. For part of these data: Potencies of inconclusive entries are doubtful fits and often do not repeat. The source holds several records for some structures; these can differ, active in one and inactive in another. The source made the active and inactive calls. Unless noted, calls follow the shape of the dose curve; as a rule, active = well fitted curve in the direction sought with a large enough effect in the repeat runs; inconclusive = weak or mixed curves; inactive = no such curve, though single readings can be large; an effect the other way counts as inactive or inconclusive.
# Assays:
# [1] = qHTS assay to identify small molecule antagonists of the estrogen receptor beta (ER-beta) signaling pathway - cell viability counter screen (AID 1259382); also: potency is read from the fitted curve at half-maximal effect; nearly all actives have a fitted effect of over 55% in size
# How it was run: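 In this multiplexed counter screen, cells were seeded at 2,000 per well in medium with 2% charcoal-stripped FBS and incubated 6 hr before compound and 1nM final E2 were added. Sixteen hours later, ATP-based luminescence reported viability.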
# [2] = molecular target: Thyrotropin receptor (Homo sapiens) (UniProt P16473); assay: qHTS assay to identify small molecule antagonists of the thyroid stimulating hormone receptor (TSHR) signaling pathway (AID 1259385; calls by dose curve; also: nearly all actives have a fitted effect of over 20% in size; also: potency is read from the fitted curve at half-maximal effect; as to activity change, negative = inhibition: % is scaled to controls: 0 for no effect and ±100 for the full control effect); settings: TSHR-HEK293 cAMP HTRF, TSH-stimulated antagonist mode; activity change, negative = inhibition: at 92.4 µM (top of the series) unless noted
# Sequence of UniProt P16473 (P16473 whole entry, looked up): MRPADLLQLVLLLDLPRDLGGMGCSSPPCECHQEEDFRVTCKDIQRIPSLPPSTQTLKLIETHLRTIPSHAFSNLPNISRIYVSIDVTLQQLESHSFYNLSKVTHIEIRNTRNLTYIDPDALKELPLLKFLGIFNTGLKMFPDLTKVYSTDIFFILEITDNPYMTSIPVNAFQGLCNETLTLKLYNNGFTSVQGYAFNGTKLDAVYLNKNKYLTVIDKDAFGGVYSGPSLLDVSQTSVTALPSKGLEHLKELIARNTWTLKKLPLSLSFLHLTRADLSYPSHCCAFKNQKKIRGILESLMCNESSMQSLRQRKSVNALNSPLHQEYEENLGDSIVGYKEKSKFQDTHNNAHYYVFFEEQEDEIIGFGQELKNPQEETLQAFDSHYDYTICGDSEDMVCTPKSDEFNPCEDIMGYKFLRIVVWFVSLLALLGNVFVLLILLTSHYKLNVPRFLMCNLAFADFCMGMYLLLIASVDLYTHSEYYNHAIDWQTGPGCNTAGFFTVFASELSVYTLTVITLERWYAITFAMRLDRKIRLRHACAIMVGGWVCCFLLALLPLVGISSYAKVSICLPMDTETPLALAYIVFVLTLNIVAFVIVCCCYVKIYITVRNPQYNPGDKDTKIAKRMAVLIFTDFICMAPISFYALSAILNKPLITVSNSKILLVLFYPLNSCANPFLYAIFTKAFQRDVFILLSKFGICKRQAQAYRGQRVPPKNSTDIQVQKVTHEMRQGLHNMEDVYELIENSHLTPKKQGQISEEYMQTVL
# How it was run: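 Antagonist mode: compound-treated TSHR-expressing HEK293 cells were stimulated with 1.5 ng/mL TSH (final) in presence of Ro20-1724 for 30 min at RT. HTRF cAMP detection after 1 h; each compound tested at 15 concentrations, triplicate.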
# [3] = molecular target: Progesterone receptor (Homo sapiens) (UniProt P06401); assay: qHTS assay to identify small molecule agonists of the progesterone receptor (PR) signaling pathway (AID 1346784; calls by dose curve; also: nearly all actives have a fitted effect of over 30% in size; also: potency is read from the fitted curve at half-maximal effect; as to activation: % is scaled to controls: 0 for no effect and ±100 for the full control effect); settings: PR-UAS-bla HEK293T, beta-lactamase FRET ratio, 16 h; activation: at 92.4 µM (top of the series) unless noted
# Sequence of UniProt P06401 (P06401 whole entry, looked up): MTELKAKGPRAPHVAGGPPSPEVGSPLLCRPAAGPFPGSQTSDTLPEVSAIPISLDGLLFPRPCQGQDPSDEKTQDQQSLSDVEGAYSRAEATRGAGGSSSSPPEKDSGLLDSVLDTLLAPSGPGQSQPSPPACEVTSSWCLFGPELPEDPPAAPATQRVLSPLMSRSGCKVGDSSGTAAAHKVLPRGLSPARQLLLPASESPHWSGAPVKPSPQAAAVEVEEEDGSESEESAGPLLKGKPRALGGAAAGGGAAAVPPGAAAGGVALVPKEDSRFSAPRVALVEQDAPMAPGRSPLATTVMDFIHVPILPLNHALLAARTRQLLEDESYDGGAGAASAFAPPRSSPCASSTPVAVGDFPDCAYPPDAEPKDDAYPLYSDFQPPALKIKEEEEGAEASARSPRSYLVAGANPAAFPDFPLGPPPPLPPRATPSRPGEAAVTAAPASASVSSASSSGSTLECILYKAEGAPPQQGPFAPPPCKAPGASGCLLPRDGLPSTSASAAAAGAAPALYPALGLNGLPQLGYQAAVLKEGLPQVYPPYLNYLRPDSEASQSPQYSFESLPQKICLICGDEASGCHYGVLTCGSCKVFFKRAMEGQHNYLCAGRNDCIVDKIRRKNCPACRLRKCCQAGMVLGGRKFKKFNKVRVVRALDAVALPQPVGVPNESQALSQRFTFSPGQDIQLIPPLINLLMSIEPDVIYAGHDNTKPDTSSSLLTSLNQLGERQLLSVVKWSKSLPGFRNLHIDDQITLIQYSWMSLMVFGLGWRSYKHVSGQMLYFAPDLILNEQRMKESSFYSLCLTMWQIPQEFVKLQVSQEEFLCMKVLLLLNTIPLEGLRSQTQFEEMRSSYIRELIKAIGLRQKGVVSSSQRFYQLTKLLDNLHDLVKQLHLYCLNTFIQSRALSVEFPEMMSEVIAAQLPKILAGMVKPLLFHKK
# How it was run: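 The screen uses PR-UAS-bla HEK 293T cells in charcoal-stripped serum (2%). Compounds are applied for 16 hr at 37C after a 6 hr pre-incubation, and reporter activity is detected with a FRET beta-lactamase substrate after 2 hr at room temperature.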
# [4] = molecular target: Progesterone receptor (Homo sapiens) (UniProt P06401); assay: qHTS assay to identify small molecule antagonists of the progesterone receptor (PR) signaling pathway (AID 1346795; active = well fitted inhibition curve with a large enough effect in the signal ratio in the repeat runs, not every such curve was filed as active; inconclusive = weak or mixed curves; the % refers to the signal ratio; also: potency is read from the fitted curve at half-maximal effect); settings: PR-UAS-bla HEK293T, beta-lactamase FRET ratio, 16 h; activity change, negative = inhibition: at 92.4 µM (top of the series) unless noted
# How it was run: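 After 6 hr plating at 37C in 2% stripped-serum medium, PR-UAS-bla HEK293T cells got compounds, then 1 nM R5020. Sixteen hours later, LiveBLAzer substrate was applied for 2 hr at room temperature and fluorescence was recorded.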
# [5] = qHTS assay to identify small molecule agonists of the progesterone receptor (PR) signaling pathway - cell viability counter screen (AID 1346799; calls by dose curve; also: nearly all actives have a fitted effect of over 45% in size; also: potency is read from the fitted curve at half-maximal effect)
# How it was run: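 Viability was scored by ATP luminescence (CellTiter-Glo, 30 min, room temperature) in the same wells used for the reporter readout, after 16 hr compound exposure of PR-UAS-bla HEK293T cells.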
# [6] = qHTS assay to identify small molecule antagonists of the TGF-beta/Smad signaling pathway (AID 1346924; active = well fitted inhibition curve with a large enough effect in the signal ratio in the repeat runs, not every such curve was filed as active; inconclusive = weak or mixed curves; the % refers to the signal ratio; also: potency is read from the fitted curve at half-maximal effect); settings: SBE-bla HEK293T, TGF-beta/Smad reporter, beta-lactamase ratio; activity, negative = inhibition: at 76.8 µM (top of the series) unless noted
# How it was run: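 SBE-bla HEK 293T cells were plated overnight, then received compound in DMSO plus TGF-beta1 (added as a 0.25 ng/mL solution) and were incubated 5 h at 37 C. Beta-lactamase reporter activity was read after 2 h at room temperature with LiveBLAzer B/G FRET substrate (ex 405, em 460/530 nm).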
# [7] = Caspase-3/7 induction in HepG2 cells by small molecules, qHTS assay (AID 1346978); also: potency is read from the fitted curve at half-maximal effect; nearly all actives have a fitted effect of over 15% in size
# How it was run: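 Caspase-3/7 induction was measured by Caspase-Glo 3/7 luminescence (30 min, room temperature) after a 17 hr compound exposure of wild-type HepG2 cells seeded at 2,000 per well and pre-incubated 5 hr.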
# [8] = Caspase-3/7 induction in CHO-K1 cells by small molecules, qHTS cell viability counter screen (AID 1346979); also: potency is read from the fitted curve at half-maximal effect; nearly all actives have a fitted effect of over 35% in size
# How it was run: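 Seeding: 1,500 CHO-K1 cells/well. Rest: 5hr, 37C. Treatment: compounds in DMSO, 16hr. Read: CellTiter-Fluor, 1hr, fluorescence.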
# [9] = qHTS assay to identify small molecule agonists of the estrogen receptor beta (ER-beta) signaling pathway - cell viability counter screen (AID 1259380); also: nearly all actives have a fitted effect of over 30% in size; also: potency is read from the fitted curve at half-maximal effect
# How it was run: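 CellTiter-Glo read, 30 min RT, same wells as bla assay; cells ER-beta-UAS-bla HEK293T; 16 hr compound, 37C; medium 2% charcoal-stripped FBS.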
# [10] = qHTS assay to identify small molecule agonists of the TGF-beta/Smad signaling pathway (AID 1346859; active = well fitted activation curve with a large enough effect in the signal ratio in the repeat runs, not every such curve was filed as active; inconclusive = weak or mixed curves; the % refers to the signal ratio; also: potency is read from the fitted curve at half-maximal effect; as to activation: % is scaled to controls: 0 for no effect and ±100 for the full control effect); settings: SBE-bla HEK293T, TGF-beta/Smad beta-lactamase reporter, 5 h; activation: at 76.8 µM (top of the series)
# How it was run: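 Dual-wavelength fluorescence (460/530 nm emission) quantified beta-lactamase expression under the Smad binding element in HEK 293T cells following 5 hr compound treatment at 37 C.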
# [11] = qHTS assay to identify small molecule agonists or antagonists of the thyroid stimulating hormone receptor (TSHR) signaling pathway - wild type cell line counter screen (AID 1259384; calls by dose curve; also: % is scaled to controls: 0 for no effect and ±100 for the full control effect); settings: HEK293 wild type, cAMP HTRF counter-screen; cAMP activity change: at 92.4 µM (top of the series), stronger effect = higher value unless noted
# How it was run: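 Counter screen in untransfected Hek293: compounds (15-point titration, triplicate) plus phosphodiesterase inhibitor Ro20-1724 added after 18 h plating; 30 min RT. Intracellular cAMP via competitive d2/cryptate immunoassay, 1 h incubation.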
# [12] = qHTS assay to identify small molecule agonists of the estrogen receptor alpha (ER-alpha) signaling pathway in the presence of an antagonist - cell viability counter screen (AID 1259386);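 also: potency is read from the fitted curve at half-maximal effect; cells exposed to compounds for 22 h at 37 °C before the viability read; nearly all actives have a fitted effect of over 30% in size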
# How it was run: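 Viability counter screen using VM7Luc4E2 (full-length ER-alpha, four ERE-luciferase). The cells were treated with compounds alongside ICI-182,780 10.0nM for 22hr, and live-cell protease fluorescence was quantified with CellTiter-Fluor.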
# [13] = qHTS assay to identify small molecule antagonists of the progesterone receptor (PR) signaling pathway - cell viability counter screen (AID 1346798); also: potency is read from the fitted curve at half-maximal effect; nearly all actives have a fitted effect of over 50% in size
# How it was run: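 Viability was determined by ATP-based luminescence (CellTiter-Glo) in PR-UAS-bla HEK293T cells cultured in 2% charcoal-stripped serum and incubated 16 hr with compounds under R5020 stimulation.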
# [14] = qHTS assay to identify small molecule antagonists of the TGF-beta/Smad signaling pathway - cell viability counter screen (AID 1346824); also: nearly all actives have a fitted effect of over 50% in size; also: potency is read from the fitted curve at half-maximal effect
# How it was run: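 Cytotoxicity counter-screen run in the same wells as the beta-lactamase Smad reporter read: CellTiter-Glo luminescence after 30 min at room temperature. HEK 293T SBE-bla cells had 5 hr compound exposure at 37 C with TGF-beta1 (0.25 ng/mL stock).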
# [15] = molecular target: Thyrotropin-releasing hormone receptor (Homo sapiens) (UniProt P34981); assay: qHTS assay to identify small molecule antagonists of the thyrotropin-releasing hormone receptor (TRHR) signaling pathway (AID 1346877; active = well fitted inhibition curve with a large enough effect in the repeat runs, not every such curve was filed as active; inconclusive = weak or mixed curves; also: potency is read from the fitted curve at half-maximal effect)
# Sequence of UniProt P34981 (P34981 whole entry, looked up): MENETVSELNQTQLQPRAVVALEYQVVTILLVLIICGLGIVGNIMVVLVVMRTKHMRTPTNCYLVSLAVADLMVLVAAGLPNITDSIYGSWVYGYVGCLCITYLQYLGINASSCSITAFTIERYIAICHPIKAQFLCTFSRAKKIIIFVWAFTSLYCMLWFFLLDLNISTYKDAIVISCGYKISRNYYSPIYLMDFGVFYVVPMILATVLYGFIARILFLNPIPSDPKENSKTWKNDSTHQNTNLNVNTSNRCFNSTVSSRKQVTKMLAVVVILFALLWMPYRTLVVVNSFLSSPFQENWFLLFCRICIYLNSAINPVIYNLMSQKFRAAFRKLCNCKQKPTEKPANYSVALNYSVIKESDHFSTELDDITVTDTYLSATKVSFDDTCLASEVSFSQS
# How it was run: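 Following an 18 h incubation at 37 °C and a 2 h calcium dye load, TRHR-HEK293 cells were exposed to compound (5 min, room temperature) and challenged with TRH, 1 nM final.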
# [16] = Caspase-3/7 induction in CHO-K1 cells by small molecules, qHTS assay (AID 1346980); also: potency is read from the fitted curve at half-maximal effect; nearly all actives have a fitted effect of over 15% in size
# How it was run: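 Luminescent Caspase-Glo 3/7 read (30min, room temperature) quantified apoptosis induction. Cells were wild-type CHO-K1, treated with compound for 17hr at 37 C and 5% CO2.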
# [17] = qHTS assay to identify small molecule agonists of the TGF-beta/Smad signaling pathway - cell viability counter screen (AID 1346829); also: potency is read from the fitted curve at half-maximal effect; nearly all actives have a fitted effect of over 45% in size
# How it was run: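 Same-well cytotoxicity: CellTiter-Glo added after the 2 hr room-temperature beta-lactamase substrate step, luminescence measured 30 min later; cells had 5 hr of compound at 37 C.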
# [18] = molecular target: Thyrotropin-releasing hormone receptor (Homo sapiens) (UniProt P34981); assay: qHTS assay to identify small molecule agonists of the thyrotropin-releasing hormone receptor (TRHR) signaling pathway (AID 1346891; calls by dose curve; also: potency is read from the fitted curve at half-maximal effect)
# How it was run: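 Kinetic fluorescence (3 min, 1 s intervals) reported intracellular calcium after compound transfer onto TRHR-Hek293 cells pre-loaded with dye for 2 h at 37 °C.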
# [19] = Human pregnane X receptor (PXR) small molecule agonists, qHTS cell viability counter screen (AID 1346977); also: potency is read from the fitted curve at half-maximal effect; nearly all actives have a fitted effect of over 50% in size
# How it was run: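 HepG2 cells stably carrying the PXR-Luc reporter are cultured with 5% charcoal-stripped FBS and treated with compounds for 24hr. CellTiter-Fluor is added at 23hr and fluorescence is read after 1hr.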
# Tags tell the direction and shape of the fitted curve or compound fluorescence and quenching.
structure (smiles),measurement,setting,value
c1ccc2c(c1)Sc1ccccc1N2CC1CN2CCC1CC2 (stereo unspecified),Potency,[1],active: 21.1 µM
same,Potency,[2],inconclusive: 33.5 µM
same,Potency,[3],"inconclusive: 33.5 µM [cytotoxic, single point]"
same,Potency,[4],active: 26.6 µM
same,Potency,[5],active: 13.3 µM
same,"activity, negative = inhibition",[6],inconclusive: -19.7% [at 35.3 µM]
same,Potency,[7],"inconclusive: 33.5 µM [activator, single point]"
same,Potency,[8],active: 29.8 µM
CCCCCCCCOC(=O)c1ccccc1C(=O)OCCCCCCCC,Potency,[9],"inconclusive: 13.6 µM [cytotoxic, single point]"
same,Potency,[5],inactive
COP(=O)(O)OC,Potency,[9],inactive
same,Potency,[10],inactive
O=[N+]([O-])c1cc(C(F)(F)F)c(Cl)c([N+](=O)[O-])c1Nc1ncc(C(F)(F)F)cc1Cl,Potency,[1],active: 8.63 µM
same,cAMP activity change,[11],inconclusive: -0.399%
same,Potency,[2],active: 61.1 µM
same,Potency,[12],active: 30.6 µM
same,Potency,[3],"inconclusive: 6.11 µM [cytotoxic, full curve]"
same,Potency,[4],inconclusive: 10.9 µM
same,Potency,[13],active: 24.3 µM
same,Potency,[5],active: 27.3 µM
same,Potency,[14],active: 30.9 µM
same,Potency,[10],"inconclusive: 7.76 µM [rising, partial curve]"
same,Potency,[15],active: 15.1 µM
same,Potency,[16],"inconclusive: 27.3 µM [activator, single point]"
O=C1C2(Cl)C3(Cl)C4(Cl)C(Cl)(Cl)C5(Cl)C3(Cl)C1(Cl)C5(Cl)C24Cl (stereo unspecified),Potency,[1],active: 26.9 µM and active: 58.5 µM
same,Potency,[2],inconclusive: 67.5 µM
same,"activity change, negative = inhibition",[2],inconclusive: -7.15%
same,Potency,[3],inconclusive: 67.5 µM [cytotoxic]
same,activation,[3],inconclusive: -15.5%
same,Potency,[4],inconclusive: 67.5 µM and active: 29.3 µM
same,Potency,[13],"inconclusive: 67.5 µM [cytotoxic, single point] and inconclusive: 73.7 µM [cytotoxic, single point]"
same,Potency,[5],"inconclusive: 75.7 µM [cytotoxic, single point] and inconclusive: 73.7 µM [cytotoxic, single point]"
same,Potency,[14],"inconclusive: 42.9 µM [cytotoxic, partial curve]"
same,Potency,[17],"inconclusive: 54 µM [cytotoxic] and inconclusive: 52.6 µM [cytotoxic, single point]"
same,Potency,[10],"inconclusive: 60.6 µM [falling, partial curve, poor fit]"
same,Potency,[15],"inconclusive: 14.9 µM [inhibitor, partial curve] and active: 28.9 µM"
same,Potency,[18],active: 30.4 µM and active: 37.3 µM
same,Potency,[6],inconclusive: 48.2 µM [inhibitor]
same,"activity, negative = inhibition",[6],inconclusive: -1.1%
same,Potency,[19],"inconclusive: 65.7 µM [cytotoxic, single point]"
same,Potency,[8],active: 37.9 µM and active: 46.5 µM
same,Potency,[16],"inconclusive: 60.1 µM [activator, partial curve, poor fit] and inconclusive: 65.7 µM [activator, single point]"
O=C1c2ccccc2C(=O)C1C(=O)C(c1ccccc1)c1ccc(Cl)cc1 (stereo unspecified),Potency,[1],"inconclusive: 24.3 µM [cytotoxic, partial curve]"
same,"activity change, negative = inhibition",[2],inconclusive: 7.29%
same,Potency,[12],"inconclusive: 27.3 µM [cytotoxic, full curve]"
same,Potency,[3],"inconclusive: 4.86 µM [falling, full curve, poor fit]"
same,Potency,[4],active: 19.3 µM
same,Potency,[5],"inconclusive: 13.7 µM [rising, full curve]"
same,Potency,[14],inactive
same,Potency,[17],"inconclusive: 54.9 µM [cytotoxic, single point]"
same,Potency,[10],inactive
same,Potency,[8],active: 15.4 µM
CCC(C)(C)c1ccc(O)c(C(C)(C)CC)c1,Potency,[1],active: 53.9 µM and active: 30.6 µM
same,"activity change, negative = inhibition",[2],inconclusive: -11.9%
same,Potency,[12],"inconclusive: 76.1 µM [cytotoxic, partial curve, poor fit]"
same,Potency,[3],"inconclusive: 67.8 µM [cytotoxic, single point] and inconclusive: 30.6 µM [cytotoxic, full curve]"
same,Potency,[13],active: 60.4 µM and active: 30.6 µM
same,Potency,[5],"inconclusive: 67.8 µM [cytotoxic, single point] and active: 24.3 µM"
same,Potency,[14],"inconclusive: 24.5 µM [cytotoxic, partial curve]"
same,Potency,[17],"inconclusive: 34.3 µM [cytotoxic, partial curve] and inconclusive: 54.9 µM [cytotoxic, single point]"
same,Potency,[10],"inconclusive: 69.2 µM [falling, partial curve, poor fit]"
same,Potency,[6],inconclusive: 38.9 µM
same,"activity, negative = inhibition",[6],inconclusive: -26.6%
same,Potency,[19],"inconclusive: 70.8 µM [cytotoxic, single point]"
same,Potency,[8],active: 48 µM and active: 27.3 µM
same,Potency,[16],active: 17.2 µM

# From PubChem BioAssay (Tox21)
